# Screen size: about 150,000 compounds; about 540 (0.36%) showed an effect of 50% or more. Some of the results follow.
# Test system: Plasmodium falciparum
# Assay: Primary screen in NF54 nanoGlo assay, in single point, at 2uM, 72h; a lower Z score goes with more inhibition
# Assay type: functional, Erythrocyte
# Details: timepoint 72 hour
SMILES,% Inhibition [%],Z score
C[C@H](CNC(=O)N1CC(O)C1)Cc1cccc2ccccc12,1,-0.26
CC[n+]1c(C)n(C2CCCCC2)c2ccc(C(=O)OC)cc21,27,0.03
Cc1cc(C(NC(C)c2ccccn2)C2CC2)ccc1F (stereo not drawn),-8,1.42
Cc1cc2c(cc1S(=O)(=O)CCC(=O)NCc1ccccc1)OCC(=O)N2,-10,1.57
O=C(NCc1cccc(Cl)c1)c1cn2ccncc2n1,-7,1.06
CCC#CCN1CCC(CNC(=O)c2oc(C)nc2C)CC1,-1,0.1
CN(CCNC(=O)CCc1cn(-c2ccccc2)nc1-c1ccc2c(c1)OCO2)C1CCCCC1,63,-8.26
CN1CC(C)(O)C(O)(C#Cc2ccccc2)CC1c1ccccc1 (stereo not drawn),34,-3.89
Cc1cc(-c2ccc(C(=O)N3C[C@H]4CN(C)C[C@H]4C3)cc2)c(Cl)cc1F,6,-1.17
CC1=Nc2ccccc2N=C(NC(=O)CN2CCCCCC2)[C@H]1c1ccccc1,-10,1.34
CC(C)c1nn(C)cc1NC(=O)NCCN1CCC(C)(C)C1,1,-0.14
Cn1c(C2CC2)nc2cc(NC(=O)[C@@H]3CCCN3)ccc21,0,-0.04
Cc1ccc(CN(C[C@H]2CCCO2)C(=O)COc2ccc(Cl)cc2C)o1,-13,2.05
O=S(=O)(c1ccc2c(c1)CCO2)N1CCCN(C2CCC2)CC1,-21,3.6
Nc1ccc(N2N=C(c3ccccc3)CC2=O)nc1,-14,1.23
CC(C)N1CCc2nnc(C3CCN(C(=O)c4cccs4)CC3)n2CC1,3,-0.48
CC[C@H](C)NC(=O)c1ccn2c(-c3ccc(Cl)cc3)nnc2c1,-3,0.38
Cc1ccc(N2C[C@@H](C(=O)Nc3cc(-c4noc(C5CC5)n4)sc3C)CC2=O)cc1,-8,0.76
Cc1csc(CC2(O)CCN(C(=O)c3ccc(C)c(C)c3)CC2)n1,-1,0.21
COc1ccc(Cc2nc(-c3csc(C)n3)n(C)n2)cc1OC,-8,1.01
OC[C@@H]1N[C@H](c2cccc(-n3cccn3)c2)[C@@H]2CN(c3ccccc3)C[C@@H]21,-11,1.07
Cc1n[nH]nc1C(=O)N1CCN(Cc2ccccc2)C(=O)C1,-26,3.38
Cc1cc([C@H](C)NC(=O)N2CCC2)c(C)s1,15,-1.78
CC1CCCC(C)N1C(=O)CN(CCO)Cc1ccsc1 (stereo not drawn),9,-1.01
Cc1nc(Cn2ncc3ccccc32)n(CCO)n1,10,-1.42
CC(C)c1ccc(NS(=O)(=O)c2ccc(-c3[nH]ncc3C(=O)N3CCCCC3)o2)cc1,3,-0.3
Cn1ccnc1C1CCCCN1C(=O)CC1(c2ccccc2)CC(=O)N(Cc2ccncc2)C1=O (stereo not drawn),5,-0.6

SMILES,% Inhibition [%],Z score
O=C(c1cccc2c1CCCC2)N1CCC(O)(Cn2ccnn2)CC1,12,-1.65
Cn1nncc1S(=O)(=O)NCCOC1CCCCCC1,-9,0.73
O=C(NC[C@H](CC1CC1)C(=O)O)c1ccc2ccncc2c1,-2,0.37
CCn1cnnc1C[C@H]1CCCN(C(=O)NC2CCCC2)C1,-5,0.6
Cc1nccc(CNC(=O)c2cccc(-c3noc(C4CC4)n3)c2)n1,-16,1.65
Cc1ccc(C(=O)N[C@H]2CCCNC2)cc1NC(=O)c1ccc(Br)cc1,31,-3.96
CNc1nc(NCCc2ccccc2)nc2ccccc12,83,-8.48
Cc1cc(C)nc(O[C@H]2CC[C@H](NS(=O)(=O)c3c(C)noc3C)CC2)n1,-6,1.04
CCCNC(=O)c1nnn2c1c(=O)[nH]c1ccccc12,1,-0.27
CC[C@H](C)[C@@H](C(=O)NCCc1ccncc1)n1cnnn1,-1,0.1
Cn1c(C[C@H]2CN(CC3CCCCC3)CC[C@H]2CC(=O)O)nc2ccccc21,-3,0.48
COC[C@@H](O)CNC(=O)Cn1cc(Cl)c(C)n1,-4,0.61
C[C@@H]1CN(Cc2cscn2)CCN1C(=O)OC(C)(C)C,0,-0.06
Cc1cccc(C(=O)N(CC2CCN(Cc3ccccc3F)CC2)C[C@H]2CCCO2)n1,9,-1.21
Cc1ccc(CN(Cc2ccc(F)cc2)C(=O)CN(C2CCCCC2)S(=O)(=O)c2ccccc2)s1,-14,1.45
O=C1NC(=O)[C@H](CC(=O)N2CCC3(CCC(=O)N(Cc4ccccc4)C3)CC2)N1,-10,1.48
O=C(c1cnc2ccccc2n1)N1CCCN(C[C@H]2CCCO2)CC1,1,-0.16
Cc1onc(C2CCCCC2)c1C(=O)O,-5,0.83
c1csc(-c2ccn(Cc3nc(C4CC4)no3)n2)c1,-6,0.63
CC(C)c1cnc(NC(=O)c2ccc(N3CCCC3)nc2)s1,-15,2.31
O=C(CC1CCCCC1)NCc1cc(-c2cccs2)on1,-6,0.83
Cn1cc(-c2ccccc2CNC(=O)C2CN3CCCN2CC3)cn1 (stereo not drawn),-29,3.43
Cc1cccc2c(N3CCC(N4CCCOCC4)CC3)ncnc12,-6,0.84
Cc1oc2ncn(C)c(=O)c2c1C(=O)N1CC(C)CC(C)C1 (stereo not drawn),-11,1.84
O=C1NCCN1C(=O)N[C@H]1CCn2nccc2C1,-9,1.47
O=C(CN1CC[C@H](Cc2ccncc2)C1)N1CCCc2ccccc21,0,-0.05
Cc1ccc(S(=O)(=O)/N=C(/CN2CCOCC2)N2CCCN(S(=O)(=O)c3ccc(C)cc3)C2)cc1,-11,1.38
